Reference: paper PMC4336329 (PLoS ONE, 2015)
About 14,000 (4.5%) of roughly 310,000 compounds showed an effect of 50% or more. The effect is printed as a negative number. Some of the results follow.
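Further: peak tail current of the secondary pulse compared with the same well before compound.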

Each compound was assayed against human ether-à-go-go-related gene (hERG) potassium channel (human, UniProt Q12809) (assay: primary screen, population patch clamp on CHO cells stably expressing hERG).
Chain of human ether-à-go-go-related gene (hERG) potassium channel (Q12809 whole entry, looked up): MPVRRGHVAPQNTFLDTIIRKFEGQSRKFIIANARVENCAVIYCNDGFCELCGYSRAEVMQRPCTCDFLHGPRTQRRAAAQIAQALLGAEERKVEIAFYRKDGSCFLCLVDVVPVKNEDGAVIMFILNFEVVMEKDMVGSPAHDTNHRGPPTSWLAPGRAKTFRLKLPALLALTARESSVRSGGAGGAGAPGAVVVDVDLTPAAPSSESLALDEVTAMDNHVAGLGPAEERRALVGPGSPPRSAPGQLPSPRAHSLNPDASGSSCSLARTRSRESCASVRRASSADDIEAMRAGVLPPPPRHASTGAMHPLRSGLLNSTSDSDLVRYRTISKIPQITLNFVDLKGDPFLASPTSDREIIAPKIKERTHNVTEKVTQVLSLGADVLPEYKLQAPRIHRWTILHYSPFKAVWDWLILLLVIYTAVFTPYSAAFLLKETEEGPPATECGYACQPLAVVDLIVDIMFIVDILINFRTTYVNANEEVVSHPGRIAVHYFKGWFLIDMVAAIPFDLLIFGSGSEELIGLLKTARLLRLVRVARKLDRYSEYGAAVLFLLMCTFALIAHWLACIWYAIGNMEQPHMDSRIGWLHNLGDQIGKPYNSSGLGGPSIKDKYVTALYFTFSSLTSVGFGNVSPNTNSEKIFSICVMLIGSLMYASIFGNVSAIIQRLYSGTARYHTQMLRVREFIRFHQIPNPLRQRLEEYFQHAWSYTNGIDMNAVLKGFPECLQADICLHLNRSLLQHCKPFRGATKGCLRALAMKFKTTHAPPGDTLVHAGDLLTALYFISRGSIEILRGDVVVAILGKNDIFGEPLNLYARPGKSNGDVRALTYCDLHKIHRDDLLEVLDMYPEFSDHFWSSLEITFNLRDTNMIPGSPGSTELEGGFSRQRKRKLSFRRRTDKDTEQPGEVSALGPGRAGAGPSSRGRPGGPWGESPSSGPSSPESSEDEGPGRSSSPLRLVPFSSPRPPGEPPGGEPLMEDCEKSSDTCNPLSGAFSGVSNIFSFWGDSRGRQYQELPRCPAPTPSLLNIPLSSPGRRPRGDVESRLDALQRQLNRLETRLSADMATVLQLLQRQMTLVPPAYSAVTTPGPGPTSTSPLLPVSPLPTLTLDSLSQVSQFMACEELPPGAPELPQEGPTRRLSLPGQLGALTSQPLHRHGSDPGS
In the case of COc1cc(-c2nnn(CC#N)n2)ccc1OCc1ccccc1, the “hERG current change (%, negative = inhibition) at 10uM” value is reported as -5.98%. For CCOC(=O)CC(=O)CSc1nc(CC)c(C)cc1C#N, the “hERG current change (%, negative = inhibition) at 10uM” value was 16.4%. With CN1CCN(C(=O)Nc2cccc3ccccc23)CC1 the “hERG current change (%, negative = inhibition) at 10uM” value was 12.7%. With CC(=O)O[C@H]1C(=O)[C@@]2(C)C([C@H](OC(=O)c3ccccc3)[C@]3(O)C[C@H](O)C(C)=C1C3(C)C)[C@]1(OC(C)=O)CO[C@@H]1C[C@H]2O (stereo partly shown) the “hERG current change (%, negative = inhibition) at 10uM” value was 1.75%. With Cn1c(=O)oc2cc(S(=O)(=O)NCc3ccco3)ccc21 the “hERG current change (%, negative = inhibition) at 10uM” value was -5.61%. With Cc1occc1C(=O)N/N=C/c1ccc(N(C)C)cc1 the “hERG current change (%, negative = inhibition) at 10uM” value was 5.49%. O=c1oc2ccccc2n1CSc1nc2ccccc2s1 was tested, and the “hERG current change (%, negative = inhibition) at 10uM” value was -24.6%. In the case of Cc1ccc2c(c1)nnn2C1CCN(C(=O)c2ccccc2F)CC1, the “hERG current change (%, negative = inhibition) at 10uM” value is reported as -18.1%. With CC1c2cccn2CCN1S(=O)(=O)c1ccc(F)cc1 (stereo not shown) the “hERG current change (%, negative = inhibition) at 10uM” value was -52.3%. With Cc1ccccc1-c1noc(-c2ccc(Cl)cc2)n1 the “hERG current change (%, negative = inhibition) at 10uM” value was 25.1%. For Cc1c(Cl)cccc1-n1ccnc1SCC(=O)O, the “hERG current change (%, negative = inhibition) at 10uM” value was 18.2%. With O=C(CN1CCC(n2nnc3cc(F)ccc32)CC1)NC1CC1 the “hERG current change (%, negative = inhibition) at 10uM” value was -4.99%. COc1ccc(C)cc1-n1c(SCC(=O)NCC2CCCO2)nc2c([nH]c3ccccc32)c1=O (stereo not shown) was tested, and the “hERG current change (%, negative = inhibition) at 10uM” value was -15.3%. COc1ccc(/C=N/N=C/c2ccc(OC)cc2)cc1 was tested, and the “hERG current change (%, negative = inhibition) at 10uM” value was 14%. CCC(C)N(C)Cc1cccc(C2(O)CCN(S(=O)(=O)c3ccc(F)c(C)c3)CC2)c1 (stereo not shown) was tested, and the “hERG current change (%, negative = inhibition) at 10uM” value was -72.4%. In the case of CSCCC(NC(=O)c1ccco1)C(=O)NCCc1ccc(F)cc1 (stereo not shown), the “hERG current change (%, negative = inhibition) at 10uM” value is reported as -16.9%. With Cc1[nH]c2ccccc2c1/C=N/NC(=O)CNC(=O)c1ccc2c(c1)OCCO2 the “hERG current change (%, negative = inhibition) at 10uM” value was 13.6%. In the case of CCOC(=O)c1ccccc1N/C=C/C(=O)c1ccccc1, the “hERG current change (%, negative = inhibition) at 10uM” value is reported as 1.02%. For COc1cccc(NC(=O)Cc2ccccc2)c1, the “hERG current change (%, negative = inhibition) at 10uM” value was -3.98%. With S=C(NCC1CCCO1)N1CCc2ccccc2C1 (stereo not shown) the “hERG current change (%, negative = inhibition) at 10uM” value was 13.3%. With Cc1nc2c(-c3ccccc3)c(C)nn2c(C)c1CCC(=O)N1CCOCC1 the “hERG current change (%, negative = inhibition) at 10uM” value was -33.9%. In the case of CCOC(=O)C1CCCN(CC(=O)NC2CC2)C1.O=C(O)C(=O)O (stereo not shown), the “hERG current change (%, negative = inhibition) at 10uM” value is reported as -1.4%. In the case of Cc1sc(NC(=O)CS(=O)(=O)c2ccccc2)c(C#N)c1C, the “hERG current change (%, negative = inhibition) at 10uM” value is reported as 12%. With COCCN(CC(=O)Nc1cccc(C)c1C)C(=O)c1cc(-c2ccncc2)nc2ccccc12 the “hERG current change (%, negative = inhibition) at 10uM” value was -57.3%. In the case of COc1ccccc1CNS(=O)(=O)c1cccc2nsnc12, the “hERG current change (%, negative = inhibition) at 10uM” value is reported as 10.3%. In the case of CC(=O)Nc1ccc(S(=O)(=O)NC2(C(F)(F)F)NC(=O)N(c3ccccc3F)C2=O)cc1 (stereo not shown), the “hERG current change (%, negative = inhibition) at 10uM” value is reported as 28.3%. With COC(=O)c1cccc(C23CC4(C2)[C@H](CN(Cc2cccnc2)[C@@H]4c2ccccc2)C3c2ccc(C(F)(F)F)cc2)c1 (stereo partly shown) the “hERG current change (%, negative = inhibition) at 10uM” value was -0.693%. C[C@H]1CC[C@@H]2N(C1)C[C@H]1[C@@H]3C[C@H]4[C@@H](CC(=O)[C@H]5C[C@@H](O)CC[C@@]54C)[C@@H]3CC[C@H]1[C@]2(C)O.Cl was tested, and the “hERG current change (%, negative = inhibition) at 10uM” value was 14.9%. For Cc1cccnc1NC(=O)CNC(=O)COc1ccccc1, the “hERG current change (%, negative = inhibition) at 10uM” value was 6.69%. With Cc1c(N2C(=O)c3ccccc3C2(O)c2ccccc2)c(=O)n(-c2ccccc2)n1C (stereo not shown) the “hERG current change (%, negative = inhibition) at 10uM” value was 6.85%. In the case of CSCc1c(C(=O)NCCc2ccccn2)oc2ccccc12, the “hERG current change (%, negative = inhibition) at 10uM” value is reported as -15.5%. CC(C(=O)NC1CCCCC1)N1C(=O)c2cccc3cccc1c23 (stereo not shown) was tested, and the “hERG current change (%, negative = inhibition) at 10uM” value was -5.64%. Cc1ccccc1NS(=O)(=O)c1nnc(NC(=O)CC(C)C)s1 was tested, and the “hERG current change (%, negative = inhibition) at 10uM” value was 14.4%. With O=C(OCC(=O)c1cccc2ccccc12)c1ccc(CO)cc1 the “hERG current change (%, negative = inhibition) at 10uM” value was -13.5%. COc1cc(C2C(C#N)=C(N)Oc3n[nH]c(-c4cccs4)c32)cc(OC)c1O (stereo not shown) was tested, and the “hERG current change (%, negative = inhibition) at 10uM” value was 16.2%. For CC(C)CN(C(=O)CSc1ncnc2sccc12)C1CCS(=O)(=O)C1 (stereo not shown), the “hERG current change (%, negative = inhibition) at 10uM” value was 0.687%. In the case of CCN(CC(=O)NCc1cccs1)C(=O)c1cccc(S(=O)(=O)N2CCc3ccccc32)c1, the “hERG current change (%, negative = inhibition) at 10uM” value is reported as -71.3%. For Cc1ccc(CN2CCN(/N=C/c3cccnc3)CC2)c(C)c1, the “hERG current change (%, negative = inhibition) at 10uM” value was -47.5%. With COc1cc(C=O)c(-c2c(C=O)cc(OC)c3c2OCO3)c2c1OCO2 the “hERG current change (%, negative = inhibition) at 10uM” value was -5.96%. Cc1cc(=O)[nH]c(SCc2csc(-c3ccccc3)n2)n1 was tested, and the “hERG current change (%, negative = inhibition) at 10uM” value was -10.8%. In the case of CCCCNC(=O)n1c(SC)nc2ccccc21, the “hERG current change (%, negative = inhibition) at 10uM” value is reported as 3.02%. In the case of Cc1ccc(NC(=O)CN(C)S(=O)(=O)c2cccc3nsnc23)cc1Cl, the “hERG current change (%, negative = inhibition) at 10uM” value is reported as -18.2%. For Cc1ccc(N2CC(C(=O)N3CCC(C(=O)NCCCOC(C)C)CC3)CC2=O)cc1 (stereo not shown), the “hERG current change (%, negative = inhibition) at 10uM” value was 12%.
